In all, about 340,000 compounds went through this assay and about 12,000 (3.5%) were called active. The shares of active, inactive and inconclusive entries below differ from those in the screen. Calls follow the shape of the dose curve; as a rule, active = well fitted inhibition curve with a large enough effect; inconclusive = small, poorly fitted or top-dose-only effect, or another doubt; inactive = no such curve, though single readings can be large or run the other way. Potencies of inconclusive entries are left out as doubtful fits.
Test: qHTS Assay for Inhibitors of Hepatitis C Virus (HCV)
Conditions: Huh7.5.1 HCVcc-Cre (HCVcc is cell-culture hepatitis C virus) infection, luciferase reporter, 44 h; series mostly up to 41.8 µM
Summary of the method: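 Reporter virus HCVcc-Cre (~0.5 moi) infects cells exposed to compound; seeding density 1,000 cells/well with 4 h settling beforehand. Luminescence, 15 sec read, taken 44 h post-infection following a 15 min RT substrate incubation.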
Potency is read from the fitted curve at half-maximal effect; tags tell the direction and shape of the fitted curve.

Structure (SMILES) | Potency
CCOc1ccccc1NC(=O)C1CCCN1S(=O)(=O)c1ccccc1C(F)(F)F (centres undefined) | inconclusive [inhibitor, single point]
CCN(CC)S(=O)(=O)c1cccc(C(=O)Nc2cc(C)cc(C)c2)c1 | inconclusive [inhibitor, partial curve]
CC(C)(C)NC(=O)N1CCN(c2nc3ccc(Cl)cc3s2)CC1 | active: 12.6 µM
COc1cc(NC(=O)c2cc(OC)c(OC)c(OC)c2)c(OC)cc1NC(=O)CN1CCCCC1 | active: 2.51 µM
Cc1ccc(N(CC(=O)NCc2ccccc2)S(=O)(=O)c2c(C)noc2C)cc1 | inactive
Cc1ccc(C)n1-c1ccc(C(=O)NC2CCN(Cc3ccccc3)CC2)cc1 | inconclusive [inhibitor, partial curve]
CC(C)(C)OC(=O)[C@H](Cc1ccccc1)NC(=O)c1nc[nH]c1C(=O)N[C@@H](Cc1ccccc1)C(=O)OC(C)(C)C | inconclusive [inhibitor, single point]
CC[C@]12c3[nH]c4ccccc4c3CCN1C(=O)C(CC(=O)NCC13CC4CC(CC(C4)C1)C3)C[C@@H]2C(=O)N1CCN(C(=O)c2ccco2)CC1 (some centres undefined) | active: 11.2 µM
Cc1ccc(CSCCNC(=O)c2ccc(N(C)S(=O)(=O)c3ccccc3)cc2)cc1 | active: 11.2 µM
COc1cc(C)c(Cl)cc1S(=O)(=O)NCc1ccncc1 | inactive
CC(C)n1nc(C(=O)Nc2nc3ccc(S(C)(=O)=O)cc3s2)c2ccccc2c1=O | inconclusive [inhibitor, single point]
CCN(CC(=O)Nc1ccc(OC)cc1)C(=O)Cc1cccs1 | inactive
C[C@H](CO)N1C[C@H](C)[C@@H](CN(C)Cc2ccc3c(c2)OCO3)Oc2c(NC(=O)C3CC3)cccc2C1=O | inconclusive [inhibitor, single point]
COc1ccc(N2CCN(C(=O)CN(C)S(=O)(=O)c3cccs3)CC2)cc1 | inactive
CC(C)CN1CCC(=O)N([C@H](CO)Cc2ccccc2)CC1 | inactive
CCOC(=O)c1c(-c2ccc(C)o2)csc1NC(=O)COC(=O)c1ccc(NC(N)=O)cc1 | inconclusive [inhibitor, single point]
C/C(=N/Nc1ncc(Br)cn1)c1ccc([N+](=O)[O-])cc1 | inactive
CC(NC(=O)c1cccc(S(=O)(=O)N2CCN(Cc3ccccc3)CC2)c1)c1ccc(Cl)cc1 (centres undefined) | inconclusive [inhibitor, single point]
CCn1c(SCC(=O)Nc2ccccc2C(=O)OC)nnc1-c1ccoc1C | inconclusive [inhibitor, single point]
